Our source for the AUC and IC50 values is the supplement of paper PMC4967469.

Common to all, as to test: Viability of human cancer cell lines after 72 h of drug (GDSC screen)
Compound in one assay: O=c1cc(-c2cccc3c2Sc2ccccc2S3)oc(N2CCOCC2)c1 [KU-55933]
To be noted: top dose 10 µM. How it is done:
(§1)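 Human cancer cell lines in 384-well plates, medium with 10% serum, drug for 72 h over a 256-fold dose range (nine 2-fold or five 4-fold steps up to the top dose). Adherent lines were fixed and stained with the nucleic acid dye Syto60, suspension lines read with resazurin; signal relative to control wells, capped at 0 and 100%. One two-parameter sigmoid per drug and line, fitted in a mixed model over all curves with the slope shared within a line.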

Compound in another assay: Cc1ccc(F)c(NC(=O)Nc2ccc(-c3cccc4[nH]nc(N)c34)cc2)c1 [ABT-869]
The note with it: top dose 1.024 µM; top dose inferred. How it is done:
as §1

Compound in the next assay: COc1cc2ncnc(-n3nc(-c4ccccn4)nc3N)c2cc1OC [CP466722]
The note with it: top dose 16 µM; top dose inferred. How it is done: as §1

Compound in the next assay: C=CC(=O)Nc1cc(-n2c(=O)ccc3cnc4ccc(-c5cn[nH]c5)cc4c32)ccc1C [QL-X-138]
The note with it: top dose 10.24 µM; top dose inferred. How it is done:
as §1

Compound in another assay: Cc1cnc(-c2cnc(NCCNc3ccc(C#N)cn3)nc2-c2ccc(Cl)cc2Cl)[nH]1 [CHIR-99021]
How it is done:
as §1

Compound in another assay: COc1cc(N2CCC(O)CC2)ccc1Nc1cc(Nc2ccccc2S(=O)(=O)C(C)C)c2cc[nH]c2n1 [MPS-1-IN-1]
To be noted: top dose 20 µM; top dose inferred. How it is done:
as §1

Compound in another assay: COc1cc(O)c2c(c1)/C=C/C[C@H](O)[C@H](O)C(=O)/C=C\C[C@H](C)OC2=O [(5Z)-7-Oxozeaenol]
The note with it: top dose 10 µM; top dose inferred. How it is done: as §1

Compound in the next assay: C/C=C(/C)C(=O)O[C@H]1C(C)=C2[C@H]([C@@H]1OC(=O)CCCCCCC)[C@@](C)(OC(C)=O)C[C@H](OC(=O)CCC)[C@@]1(O)[C@H]2OC(=O)[C@@]1(C)O [Thapsigargin]
The note with it: top dose 0.512 µM; top dose inferred. How it is done:
as §1

Compound in a further assay: CCn1c(-c2nonc2N)nc2cnc(Oc3cccc(NC(=O)c4ccc(OCCN5CCOCC5)cc4)c3)cc21 [GSK269962A]
To be noted: top dose 5 µM; screen: GDSC drug entry 1192; top dose inferred. How it is done: as §1

Compound in the next assay: COc1nc(C)cnc1NS(=O)(=O)c1cccnc1-c1ccc(-c2nnco2)cc1 [Zibotentan]
The note with it: top dose 20 µM; top dose inferred. How it is done:
as §1

Compound in a further assay: C[C@]1(c2nc3c(C(N)=O)cccc3[nH]2)CCCN1 [ABT-888]
To be noted: top dose 5 µM; top dose inferred. How it is done:
as §1

Setting [1] is: top dose 2.56 µM, screen: GDSC drug entry 154.
[2] abbreviates: top dose 10 µM, screen: GDSC drug entry 1241, top dose inferred.

IC50 is the fitted dose that halves viability relative to control wells, and lower means more sensitive; a limit (>, <) means that the fit lies beyond the doses tested. The AUC spans the tested range (256-fold, ending at the top dose) of the same fit; it is 1 without any effect and falls as sensitivity rises. For part of these data: The top dose, if marked as inferred, is not printed in the source and was worked back from the curve model. For part of these data: An entry number marks a drug with two screens in the source, which often give different values.

Turning to OVCAR-8 (ovary, adherent), the AUC with KU-55933 is 0.962; with ABT-869, 0.987; with CP466722, 0.827; with QL-X-138 it was 0.778; with CHIR-99021 (setting [1]), 0.981; with CHIR-99021 (setting [2]), 0.988. In addition, the AUC in the assay with MPS-1-IN-1 turned out to be 0.857; with (5Z)-7-Oxozeaenol, 0.677; with Thapsigargin it was 0.362; in the assay with GSK269962A it was 0.903; with Zibotentan it was 0.98; with ABT-888, 0.963. Also, the IC50 (as a rule, the point on the concentration scale where inhibition reaches its midpoint) with KU-55933 was more than 10 µM; with ABT-869, more than 1.02 µM; with CP466722, 8.43 µM; with QL-X-138, 3.7 µM; with CHIR-99021 (setting [1]) it was more than 2.56 µM; in the assay with CHIR-99021 (setting [2]), more than 10 µM. Further, the IC50 in the assay with MPS-1-IN-1 is 13.7 µM; with (5Z)-7-Oxozeaenol it was 1.83 µM; in the assay with Thapsigargin, 0.014 µM; with GSK269962A it was more than 5 µM; with Zibotentan it was more than 20 µM; with ABT-888, more than 5 µM.

For the cell line “P12-ICHIKAWA (T-cell lymphoblastic leukaemia, suspension)”, the AUC in the assay with KU-55933 amounted to 0.987; in the assay with ABT-869 it was 0.993; with CP466722 it was 0.601; with QL-X-138 it was 0.603; with CHIR-99021 (setting [1]) it was 0.994; with CHIR-99021 (setting [2]), 0.994. For the same cell line, the AUC is 0.854 with MPS-1-IN-1; 0.828 in the assay with (5Z)-7-Oxozeaenol; 0.396 in the assay with Thapsigargin; 0.972 in the assay with GSK269962A; 0.994 with Zibotentan; 0.99 with ABT-888. For the same cell line, the IC50 was more than 10 µM with KU-55933; more than 1.02 µM with ABT-869; 1.77 µM with CP466722; 1.15 µM in the assay with QL-X-138; more than 2.56 µM with CHIR-99021 (setting [1]); more than 10 µM with CHIR-99021 (setting [2]). The IC50 with MPS-1-IN-1 was 10.5 µM; in the assay with (5Z)-7-Oxozeaenol it was 4.37 µM; with Thapsigargin, 0.0178 µM; in the assay with GSK269962A, more than 5 µM; with Zibotentan it was more than 20 µM; with ABT-888 it was more than 5 µM.

Consider PCI-4B (head and neck, adherent), for which the AUC was determined as 0.928 with KU-55933; 0.987 in the assay with ABT-869; 0.795 with CP466722; 0.571 in the assay with QL-X-138; 0.986 with CHIR-99021 (setting [1]); 0.979 with CHIR-99021 (setting [2]). The AUC with MPS-1-IN-1 turned out to be 0.875; in the assay with (5Z)-7-Oxozeaenol, 0.606; with Thapsigargin, 0.176; in the assay with GSK269962A, 0.912; in the assay with Zibotentan, 0.987; with ABT-888, 0.974. For the same cell line, the IC50 in the assay with KU-55933 was more than 10 µM; with ABT-869, more than 1.02 µM; with CP466722 it was 7.01 µM; in the assay with QL-X-138, 0.988 µM; in the assay with CHIR-99021 (setting [1]), more than 2.56 µM; in the assay with CHIR-99021 (setting [2]), more than 10 µM. Also, the half-maximal inhibitory concentration (IC50) in the assay with MPS-1-IN-1 was 17.8 µM; with (5Z)-7-Oxozeaenol, 1.2 µM; in the assay with Thapsigargin it was 0.0036 µM; with GSK269962A, more than 5 µM; in the assay with Zibotentan, more than 20 µM; in the assay with ABT-888 it was more than 5 µM.

With SF295 (glioma, adherent), the AUC with KU-55933 turned out to be 0.949; with ABT-869, 0.975; in the assay with CP466722, 0.829; with QL-X-138, 0.781; with CHIR-99021 (setting [1]), 0.965; in the assay with CHIR-99021 (setting [2]) it was 0.928. Besides, the AUC amounted to 0.944 with MPS-1-IN-1; 0.752 in the assay with (5Z)-7-Oxozeaenol; 0.169 with Thapsigargin; 0.819 with GSK269962A; 0.984 in the assay with Zibotentan; 0.981 in the assay with ABT-888. Also, the IC50 was more than 10 µM with KU-55933; more than 1.02 µM with ABT-869; 11 µM with CP466722; 4.61 µM in the assay with QL-X-138; more than 2.56 µM with CHIR-99021 (setting [1]); more than 10 µM with CHIR-99021 (setting [2]). Further, the IC50 with MPS-1-IN-1 was more than 20 µM; with (5Z)-7-Oxozeaenol, 3.56 µM; with Thapsigargin it was 0.00284 µM; in the assay with GSK269962A, 3.13 µM; with Zibotentan, more than 20 µM; with ABT-888, more than 5 µM.

As for SISO (cervix, adherent), the AUC with KU-55933 was determined as 0.959; in the assay with ABT-869 it was 0.98; in the assay with CP466722, 0.918; with QL-X-138, 0.76; with CHIR-99021 (setting [1]), 0.983; with CHIR-99021 (setting [2]), 0.973. Further, the AUC was 0.884 with MPS-1-IN-1; 0.658 with (5Z)-7-Oxozeaenol; 0.215 with Thapsigargin; 0.935 in the assay with GSK269962A; 0.988 with Zibotentan; 0.988 with ABT-888. Besides, the IC50 in the assay with KU-55933 is more than 10 µM; with ABT-869, more than 1.02 µM; with CP466722 it was more than 16 µM; in the assay with QL-X-138, 3.46 µM; in the assay with CHIR-99021 (setting [1]), more than 2.56 µM; with CHIR-99021 (setting [2]), more than 10 µM. In addition, the IC50 in the assay with MPS-1-IN-1 is more than 20 µM; with (5Z)-7-Oxozeaenol, 1.68 µM; with Thapsigargin it was 0.00489 µM; with GSK269962A, more than 5 µM; with Zibotentan, more than 20 µM; with ABT-888 it was more than 5 µM.
